# Reference: the supplement of paper PMC11417369
# The list shows a part of the results.
# Tested on: PfSIP2 AP2 domain 1 (GST-tagged)
# Assay: gcPBM binding intensity (ln(normalized median fluorescence intensity)); higher = stronger DNA binding
# Method in brief: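 Binding intensity is defined as the maximum Masliner-normalised natural-log median intensity across replicate spots for either probe orientation. It was measured on an Agilent 4 × 180k array of primer-extended double-stranded 36-bp intergenic genomic probes and negative controls, to which GST-tagged P. falciparum DNA-binding domains made in E. coli were applied for 1 h in 1× PBS with 1% milk, 0.2 mg/ml BSA, 0.5% salmon testes DNA and 0.03% Triton X-100. Detection was by Alexa488 anti-GST antibody and scanning at 488 nm.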
row,Sequence,gcPBM binding intensity (ln)
1,AAAAAAGAAAAAAGGACACACATAAATATACTCACG [CACACA_site2904],6.85
2,ATAATGTTTCTTTCAACACACAAAAAATGAACACAT [CACACA_site1552],7.22
3,AAAAAAAAAAAATAGACCTCCTAAGCAAAAGAAAAA [GTGCAC_negctrl_site634],6.77
4,TATATAAGCGCATGCACACGCAAAGGTATATAAATA [CACACA_site622],7.12
5,TAATGACTGAAAAATTGTACATATGTATATATGTAT [XGTACX_site2415],7.05
6,ATTCTATTATAATATTCACACACTAACGTAAATCAT [CACACA_site2750],7.21
7,TATACATACATACATACACACACACCGATATATATA [CACACA_site7896],7.52
8,ATAATTTTCCATATTTGTACATATTTTTTTCCCTTG [XGTACX_site8146],6.95
9,TTTTCAATTAATAATACACACATGTATTTATTATTA [CACACA_site5774],6.77
10,AATTATATACATAAGTGTACATAATATATAAACATA [XGTACX_site793],6.88
11,TGTTGTAAATTAAAGACATGCACGTGAGAAAATATA [TGCATGCA_site285],8.71
12,TTTTCTATGCTAAACACACTCATTGTTACAAGTTTT [CACACA_site5531],7.02
13,TATATATATTTTATATGTACGTATGGAACAATATGA [XGTACX_site8167],7.38
14,TTATTTATTTTTTATACACACAATTATCATTTTAAG [CACACA_site22],7.09
15,TATACTAAGAAGTATTTACACACCAACAAGGCGAAA [CACACA_site8963],6.68
16,TAAGTTTATTGAAATTGTACAAACATAAATGTAAAA [XGTACX_site162],6.93
17,TTATATTTTTTTTTTTCACACACATTTATATTGTAT [CACACA_site9025],6.83
18,AAATTAAGTATATATTGTACACATAATATGATTGTA [XGTACX_site3083],6.9
19,TTATTTTCATATAGGTGTACATAAAAATATTCTTAT [XGTACX_site8861],7.26
20,TATCATAAAAAATATACACACAAAGGATATATATAT [CACACA_site1571],8.52
21,ATGTTCATTATATGCACACATATATATAAATGTAAT [CACACA_site2908],7.31
22,TTAATTAGAAATCATACACACATATAAATAAATATA [CACACA_site6225],6.7
23,TATTTGTTTGTTCGGGTGCTTACATATATTCTTATA [GTGCAC_site9972],8.25

row,Sequence,gcPBM binding intensity (ln)
1,TGTGCCTATAAATTAACACACAGAAATATATAGAGA [CACACA_site818],7.04
2,TTATTCTGACAGAATTGTACTAATGTCTTTAAAAAA [XGTACX_site1256],6.7
3,GAGAAATGGGGACACACACACATATTATATATATAT [CACACA_site4943],9.04
4,TATATATATCTGTACACACACACATATAAATAAATA [CACACA_site4405],7.59
5,AAGCACAAAAAATACACACACAAAAAATAAAAAAAG [CACACA_site1840],7.06
6,TATATGCATAATAACTGTACACAAATTGGGGTTGAT [XGTACX_site459],7.28
7,ATATAAATATATGTATGTACGCATGTATGTATCTAT [XGTACX_site3290],7.16
8,ATGTATGTTTGTTATGCACACAAATGCATCTTATTT [CACACA_site8861],9.58
9,ATAATGAACAATATTATATATAAAATATAATTTATA [GTGCAC_negctrl_site564],6.72
10,ATTATGTATACATAAACACACATATATATAAAAAAA [CACACA_site262],7.03
11,ATTATATATATGTGCACACAAAAGATATATATATAT [CACACA_site5205],9.44
12,AAATAATTTACTTAATGTACATATATATATATATAT [XGTACX_site8594],9.59
13,ATATTTATTTGTTAGTGTACATACATATATATATAT [XGTACX_site1347],9.24
14,TTTTAATTTATTTATGCACACATATATAATTACACA [CACACA_site8126],7.52
15,AAAAATAAACAATATATAGTTATATATATATATATA [TGCATGCA_negctrl_site82],9.71
16,TGTTTAAAAATAATTTGTACATATATTTTATTTCAT [XGTACX_site1272],6.92
17,ATAAAGAAATAAAGTTGTACATTATATATATATATA [XGTACX_site7729],9.2
18,AATAATTTTTTAAACACACACACATATATATATATA [CACACA_site95],9.29
19,AATACATACGGACACACACACACATATATATATATA [CACACA_site5884],9.59
20,TCTTTTGTTTAACCTACATGCAGAATATAAGTCTTC [TGCATGCA_site99],7.43
21,ATTCATTATTCACCTTGTACACAAATGATTATCGTA [XGTACX_site455],7.22
22,TTTGTTCTTTTAATGTGTACATATACACTTGTAATA [XGTACX_site2635],7.29
23,AAAAAAAAAAGAAACACACACATTTGTCTATAATAT [CACACA_site7063],6.8

row,Sequence,gcPBM binding intensity (ln)
1,ATGTATGCAAAAATGGTGCATATTAAATGTATAACA [GTGCAC_site9722],11.1
2,TGACCTTATGTGTTTTGAAGGGGAAAGGAAATGCGC [XGTACX_negctrl_site411],6.86
3,TATAAAAATAGGATTTGTACATATAAAAAAGGAAAA [XGTACX_site8678],7
4,TAATATAAAAAAGGTACTACACGAAGGAATAAAAAT [XGTACX_site6872],7.36
5,CAGAAATAGAGATACACACACACATATATTTATGTA [CACACA_site3968],6.91
6,TATAAATATATGTATGCACACATTTTTTTTGGAAAA [CACACA_site1070],8.1
7,GGTATAATTCATATAACACACATTTCAATGTTAAAA [CACACA_site2172],6.99
8,TGTATTAATTTGTAATGTACACATATATGTATTATA [XGTACX_site4152],7.08
9,TAAGTAAACTTTCTATGTACATATTTTCAAATATTA [XGTACX_site6260],7.05
10,CTTATATATACATATACACACACACCCATATATATA [CACACA_site8705],7.48
11,TTAACAAAATTTTTAACACACAAAAAAAAAAAAAAA [CACACA_site1828],6.92
12,ATGTAGACAACATATGAACACACAAAATATTTTTTT [CACACA_site8955],7.16
13,CCAAAATTTATAAATTGTACATATTTTTAAATTCTT [XGTACX_site833],6.93
14,ATAAAAGAATTAAATAATCAAAATGATTATTTTATA [CACACA_negctrl_site466],6.45
15,GATAAATAATAATAAGGTACACATAAAATATTCCTT [XGTACX_site2963],6.86
16,TATATATATATAATTACACACAATGTTCTATATATA [CACACA_site3235],8.75
17,TATTTATTTAATTACACACGAACATATAACCATTTC [CACACA_site211],7.2
18,TGTAGACTACATAGTAGTACATAATATATACATATA [XGTACX_site367],6.9
19,TTTTCTTTTAAACATATATATATATATATATATATA [XGTACX_negctrl_site559],9.52
20,GTTGAAAAAAAAAATGCACACGCATACATATAATAT [CACACA_site8117],7.39
21,ATTTCTTTGCTTTTCAAACACACAAAAGTTATTATA [CACACA_site520],7.24
22,TTTTTTGTATTTTTCACACACTCTCTATCTCTCTCA [CACACA_site2095],6.75
23,AAAAAAAAAAAAAAAACACACATATATATTATTGTA [CACACA_site3979],7.44

row,Sequence,gcPBM binding intensity (ln)
1,GAATATTACATGTATTGTACAGGTAATGTTAAAAAT [XGTACX_site8274],6.96
2,TAACATAAATCCATACGTACCTATATATATATAATA [XGTACX_site2626],7.05
3,ATTTATATTAAAAGTGTGCACTTTTTTTTTTTTTTT,10.1
4,TCATTCCATACTTTAACACACAAATATATTTAATCC [CACACA_site145],7.07
5,TTTTTTTTTTTGTTTTGTACATAAATTGCAACCAAT [XGTACX_site8949],7.33
6,ATATATATATATATATGTACATATTCACTTATATTT [XGTACX_site5324],9.47
7,TAATCATAAAAAAATACACACATATAAAATATAGAT [CACACA_site7020],6.91
8,ATATTTATAAATTGCACACAAATAATAACATTATAT [CACACA_site5322],7.13
9,AAAAGTTAAGCAACAAATTTTATTTCTTATATATAA [TGCATGCA_negctrl_site134],6.86
10,AAAATTCTTATAAGATGTACAATTTGTAACACTATA [XGTACX_site510],7
11,TCACATACATTACTTACACACCATATTAAGATATAC [CACACA_site4415],7.29
12,AAATAAATATATAATACACACAAAAATATAAAATGT [CACACA_site3711],7.26
13,TTTTGTATATATTATTGTACTTTTAATATAGATCGT [XGTACX_site5830],7.37
14,TTATACTCACGTTACACACACACAATATATATATAT [CACACA_site4137],9.17
15,TTTTTTACAACACGAAAATGAACAATTATAATAAAT [TGCATGCA_negctrl_site301],6.97
16,AGTAAAAAAAATATCTGTACATATTAATATAAATGT [XGTACX_site6234],7.11
17,AAATATTATTCTTTTATTTTTAAACATATAATTATA [GTGCAC_negctrl_site136],6.82
18,TTATACACTGATAAAAGTACATTTGTATGTTTTTTT [XGTACX_site8959],6.78
19,ATCTAAAAATTTTACGCACACAAGTAAAAAAAAAAA [CACACA_site2485],7.25
20,TTTTATAATCATAATAGTACTTTTTCTTTTTCACAT [XGTACX_site5017],6.7
